Data reported in the RNAGym collection of RNA variant scans (doi:10.1073/pnas.2313332121).
This sample is rich in variants without activity.

B1: TPR 5TU (parent)
chain: GGAUCUUCUCGAUCUAACAAAAAAGACAAAUCUGCCACAAAGCUUGAGAGCAUCUUCGGAUGCAGAGGCGGCAGCCUUCGGUGGCGCGAUAGCGCCAACGUUCUCAACUAUGACACGCAAAACGCGUGCUCCGUUGAAUGGAGUUUAUCAUG

Variants of: B1
Experiment: polymerase ribozyme fitness, log enrichment relative to wild type (log ratio); higher = more active; in vitro selection for triplet polymerase activity
How it was run: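 Mutant libraries for each subunit of a heterodimeric triplet polymerase ribozyme were made by PCR and then transcribed. Each library underwent one round of in vitro selection in triplicate: annealing with a biotinylated primer, the partner subunit and triplets, frozen incubation at −7 °C, gel excision of extended constructs, streptavidin-bead capture and RT-PCR. Input and output libraries were Illumina-sequenced, and only genotypes with ≥10 input reads and ≥1 read per output were kept. Fitness is the logarithm, base 2, of genotype enrichment over wild-type enrichment, computed from inverse-variance-weighted replicate averages.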

Row | Variant | polymerase ribozyme fitness (log ratio)
1 | C36A A66C G81A A91C C93U | ≤ -4.2
2 | C36A A98U A107U C131A U146G | ≤ -4.2
3 | C36A A98U A113U C118U U148A | ≤ -4.2
4 | C36A C43U G81C C85A | ≤ -4.2
5 | C36A C57G U77C A119G | ≤ -4.2
6 | C36A C57G U134G | ≤ -4.2
7 | C36A C63U C69G U135C | ≤ -4.2
8 | C36A C69A C85U U101G U146C | ≤ -4.2
9 | C36A C75U C95A C129G | ≤ -4.2
10 | C36A C75U C95G C103A U145G A150C | ≤ -4.2
11 | C36A C85U A89U C96G | ≤ -4.2
12 | C36A C96U U111G | ≤ -4.2
13 | C36A C99A G140C | ≤ -4.2
14 | C36A C99A U109C C125U U130A G136A U139G | ≤ -4.2
15 | C36A G48A | ≤ -4.2
16 | C36A G62A C69U C95G U148A | ≤ -4.2
17 | C36A U44A U55A U61A C76A C96A A122C C123A | ≤ -4.2
18 | C36A U45C C95U C114U A119U | ≤ -4.2
19 | C36A U55A C75A C87U | ≤ -4.2
20 | C36A U55G C99G G124C | ≤ -4.2
21 | C36A U55G U56A | ≤ -4.2

Row | Variant | polymerase ribozyme fitness (log ratio)
22 | C36A U56G C85U C93U G94C | ≤ -4.2
23 | C36A U82A A98G | -4.01
24 | C36A U109C C118U U134C A142U | ≤ -4.2
25 | C36G A41U C103G A119C A138G | ≤ -4.2
26 | C36G A47C U55A U82G C87U U146C | ≤ -4.2
27 | C36G A47G C95G | ≤ -4.2
28 | C36G A97G | -3.56
29 | C36G C54A G83U U101G | ≤ -4.2
30 | C36G G62C G84U | ≤ -4.2
31 | C36G G94A G141C A150G | ≤ -4.2
32 | C36G U44C C57G U78G G94A G117C | ≤ -4.2
33 | C36G U55A C76U | ≤ -4.2
34 | C36G U61A A120G | ≤ -4.2
35 | C36G U90G C118U | ≤ -4.2
36 | C36G U145A | -3.88
37 | C36U A39C G42A A49G G50C C76A C96U G136A G140U | ≤ -4.2
38 | C36U A39U | -2.71
39 | C36U A39U G50C A52U A66G G92C G143C | ≤ -4.2
40 | C36U A40G C43G U55A A91C G126A G141U | ≤ -4.2
41 | C36U A41G C95A A122G | -0.35
42 | C36U A41G G83C G84U C116U | -4.09

Row | Variant | polymerase ribozyme fitness (log ratio)
43 | C36U A49C G88A C93G A115C A120G | ≤ -4.2
44 | C36U A49U C96U C131A | ≤ -4.2
45 | C36U A52G C131G | ≤ -4.2
46 | C36U A52U U55A G94U A97U | ≤ -4.2
47 | C36U A60G G71U C95G G143A U144C | ≤ -4.2
48 | C36U A64G C75G | ≤ -4.2
49 | C36U A66G C93A | ≤ -4.2
50 | C36U A73G U82G C125A A138U | ≤ -4.2
51 | C36U A107C A120U A122U G126A | ≤ -4.2
52 | C36U C51U C99G | ≤ -4.2
53 | C36U C63U G84A A98U A142U G143A | ≤ -4.2
54 | C36U C75G U90A | ≤ -4.2
55 | C36U C76U C85G | -2.42
56 | C36U C79A C87U A115C A122C C131G | ≤ -4.2
57 | C36U C85U C87U C95U C105G G117U | ≤ -4.2
58 | C36U C87G U134A | ≤ -4.2
59 | C36U C93G C118U A122C A137G | ≤ -4.2
60 | C36U C96G | -2.56
61 | C36U C99U U145A | -1.47
62 | C36U G48A C57U G74A G84A C96U G112A G141A | ≤ -4.2
63 | C36U G50C G70A U77A G88U U90G G94U G141A | ≤ -4.2

Row | Variant | polymerase ribozyme fitness (log ratio)
64 | C36U G50U C54U C99U | -4.14
65 | C36U G58A C87A C131U G143A | ≤ -4.2
66 | C36U G59A U82G A97U | -1.3
67 | C36U G59C C131U | -0.515
68 | C36U G71A G94A | ≤ -4.2
69 | C36U G128C G140U | ≤ -4.2
70 | C36U G141U A142C | ≤ -4.2
71 | C36U U44A A122C | -4.15
72 | C36U U55A C69A G81A C95A A150U | ≤ -4.2
73 | C36U U77G A98U U134A | ≤ -4.2
74 | C36U U127G | ≤ -4.2
75 | A37C A39U C76U G80C G92C | ≤ -4.2
76 | A37C A40C G48C G74A G94A G126C G133A G136A A150U | ≤ -4.2
77 | A37C A40C U77G | ≤ -4.2
78 | A37C A41C A89G A110U | ≤ -4.2
79 | A37C A47G G48A G58A G84U G136A | ≤ -4.2
80 | A37C A49C G59A C87A G140C | ≤ -4.2
81 | A37C A52G G68A | ≤ -4.2
82 | A37C A52U U101G G143A | ≤ -4.2
83 | A37C A60C G67C C76G | -3.82
84 | A37C A60C U61G G67A C95A C149U | ≤ -4.2
